Laboratory results: the supplement of paper PMC3334620
Whole data set: some 33,000 sequences, median “E-score (-0.5 to 0.5)” near -0.016, cut for the highest 2% near 0.32. The list shows a part of the results.

Target: T1, Stp1 (UniProt B3LFK1)
T1 sequence: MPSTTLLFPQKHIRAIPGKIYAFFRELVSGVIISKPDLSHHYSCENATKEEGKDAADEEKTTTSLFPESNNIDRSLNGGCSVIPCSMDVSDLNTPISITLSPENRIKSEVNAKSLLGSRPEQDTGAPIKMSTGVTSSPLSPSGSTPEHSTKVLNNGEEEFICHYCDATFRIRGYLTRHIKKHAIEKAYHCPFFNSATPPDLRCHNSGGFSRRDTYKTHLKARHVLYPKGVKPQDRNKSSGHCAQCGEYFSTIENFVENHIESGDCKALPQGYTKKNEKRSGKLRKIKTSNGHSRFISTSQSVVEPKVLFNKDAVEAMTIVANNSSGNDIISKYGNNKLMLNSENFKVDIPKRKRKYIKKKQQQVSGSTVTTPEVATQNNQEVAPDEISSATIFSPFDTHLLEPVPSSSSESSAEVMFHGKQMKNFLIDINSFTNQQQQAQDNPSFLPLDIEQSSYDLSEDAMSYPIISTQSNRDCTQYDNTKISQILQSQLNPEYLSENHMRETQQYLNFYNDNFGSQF
Assay: PBM E-score (8-mer binding enrichment) (E-score (-0.5 to 0.5)); higher = stronger / more preferred TF binding; most listed sequences are background and not binding sites
Conditions: protein concentration: 200 nM; construct: GST-full length
In short: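 Each ungapped eight-base word and its reverse complement, pooled, received an E-score from the Universal PBM Analysis Suite. Underlying scans, normalised with masliner, recorded fluorescent anti-GST bound to GST-tagged yeast transcription factors. These were applied at about 100-200 nM to universal all-10-mer Agilent arrays double-stranded by primer extension.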

| Sequence | PBM E-score |
| --- | --- |
| AATTCAGA | -0.0484 |
| AATTAAGT | 0.131 |
| CAGATCTG | -0.131 |
| AGGGCTCC | -0.0621 |
| ATCTCATG | 0.0649 |
| CCTTGTCG | 0.062 |
| GGGACATA | -0.103 |
| ACCAGAGC | -0.0074 |
| AATGGAAC | 0.111 |
| AAGAATAG | 0.0219 |
| AGTTGGTA | -0.0223 |
| ACTTGGCG | -0.147 |
| GCGACCCC | -0.105 |
| CGAAAGCG | -0.186 |
| AACTCAAG | 0.031 |
| AATGCCAC | 0.293 |
| ACTTGGAA | 0.0328 |
| ACGGCAAG | 0.369 |
| ATCTGGCA | 0.183 |
| CCAGACGA | -0.0954 |
| GTCGTATA | 0.109 |
| CTACATGC | -0.0103 |

| Sequence | PBM E-score |
| --- | --- |
| AAGGAGCT | -0.235 |
| AAGAATAA | 0.109 |
| ACAATAGT | 0.139 |
| GCATTCAC | 0.145 |
| ACATCGGC | -0.0114 |
| AACAGACG | 0.0384 |
| AAACTTCG | -0.0397 |
| GCAAAGAC | -0.00553 |
| GGTTCGTA | 0.101 |
| CCCTTCAC | -0.174 |
| CTTTTGTC | 0.137 |
| TATCACAA | 0.0226 |
| GCACCATA | 0.0723 |
| CTGCCGTA | 0.343 |
| ATAGCGAT | -0.197 |
| GGTACTCA | -0.034 |
| GACCCTAC | -0.237 |
| GGTCGAAA | -0.127 |
| CGCGGTAA | 0.143 |
| AGGGCCTC | -0.252 |
| AAGGCTGT | -0.207 |
| ATTCGAAG | 0.0185 |

| Sequence | PBM E-score |
| --- | --- |
| TAGAGCAA | 0.124 |
| AGCTAAAA | -0.0484 |
| ATGGCATG | 0.22 |
| TCTTTACA | 0.121 |
| ACAGCCTC | -0.142 |
| CATTTTAG | 0.182 |
| CGCTCCAC | -0.0213 |
| TATGCCGA | 0.094 |
| ATATTTCC | 0.104 |
| CCTGTCCC | -0.228 |
| AATGGTGT | 0.0274 |
| CAGCTCAG | -0.174 |
| TGATCGAA | 0.041 |
| GTCGGCGA | -0.0125 |
| AGGGCGGA | -0.12 |
| ACCAAGTG | -0.0911 |
| AGGGACTC | -0.335 |
| TAACGATA | 0.06 |
| CGTGTCCA | -0.0177 |
| GATTAAAC | 0.102 |
| AGAACCTG | -0.129 |
| ATGTCGTA | -0.147 |

| Sequence | PBM E-score |
| --- | --- |
| AAGTTCGA | 0.0556 |
| ATGGAGGC | -0.236 |
| CATACAGA | 0.084 |
| ATGCCTGC | 0.157 |
| CTACGTAA | 0.156 |
| AAATACCC | 0.15 |
| CCTATCTC | -0.0666 |
| GACGGCTC | 0.307 |
| CTGGAGCA | -0.19 |
| TATGGCAA | 0.228 |
| AGCGACAA | -0.105 |
| AAGGTTTG | -0.0112 |
| GTTTGGCA | 0.0408 |
| CTTCTGCC | 0.127 |
| AAGCTTGT | -0.0584 |
| CGAGCTTA | -0.123 |
| CCTGATCC | -0.191 |
| GCCGTCAA | 0.12 |
| CTATCGAC | -0.156 |
| AATCGGGA | -0.0757 |
